According to PubChem BioAssay AID1508624 (National Center for Advancing Translational Sciences (NCATS), 2021):
Hit rate of the full screen: of about 48,000 compounds, about 120 (0.25%) were called active. Roughly 4% stayed inconclusive and do not appear here. Calls follow the shape of the dose curve; as a rule, active = well fitted activation curve with a large enough effect; inconclusive = small, poorly fitted or top-dose-only effect, or another doubt; inactive = no such curve, though single readings can be large or run the other way. Some of the results follow.

Assay: Primary qHTS for Identification of Small Molecule Activators of Huntingtin-Antisense Promoter Activity; also: nearly all actives have a fitted effect of over 55% in size
Conditions: HEK293 HTT-AS promoter firefly luciferase reporter, 24 h; series mostly up to 57.5 µM; activity change, positive = activation: at the top concentration
Summary of the method: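 Luminescence was read after Dual-Glo reagent and a 10 min room-temperature incubation. Values were normalized to vehicle (0% activity) and zero RLU (-100% activity). Reporter HEK293 cells had been exposed to compounds (up to 57.5 uM final) for 24 h.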

Structure (SMILES) | activity change, positive = activation
O=c1[nH]cnc2nc[nH]c12 | inactive: 5.36%
CC(=O)Nc1ccc(S(=O)(=O)NC2(C(F)(F)F)NC(=O)N(c3ccc(C)cc3)C2=O)cc1 (configuration not stated) | inactive: -3.9%
O=C(c1cccc([N+](=O)[O-])c1)N1c2ncnn2C2(CCCCC2)[C@@H]2CCCC[C@@H]21 | inactive: -29.4%
Cc1ccc(S(=O)(=O)c2cnc(SCC(=O)Nc3ccc4c(c3)OCCO4)[nH]c2=O)cc1 | inactive: -5.66%
CC(C)(C)c1ccc(O)c(O)c1 | inactive: -38.8% [at 116 µM, percent change from vehicle, -100% = no light]
Cn1c(SCC(=O)N2CCCc3ccccc32)ncc(C(=O)Nc2ccc(Cl)cc2)c1=O | inactive: 7.33%
COc1cccc(CN(Cc2ccco2)c2cnc(S(C)(=O)=O)nc2C(=O)Nc2cccc(Cl)c2C)c1 | inactive: -25.7%
CCc1nc2nc(C)cc(Nc3ccc(OC)cc3)n2n1 | inactive: -14.8%
COc1ccccc1Nc1nn2c(=O)c3ccc(C(=O)NCc4cccs4)cc3nc2s1 | inactive: -34.2%
COc1ccc(-c2cn3c(n2)sc2cc(C(=O)NCc4ccccc4OC)ccc23)cc1 | inactive: 29.4%
COC(=O)c1cc(S(=O)(=O)NCC2CCN(Cc3cc(C)ccc3C)CC2)c[nH]1 | inactive: -6.26%
Cc1ccc2c(=O)c(C(=O)c3ccc(F)cc3)cn(CC(=O)NCc3ccccc3)c2n1 | inactive: -8.87%
COc1cccc(Cn2c(CNC(=O)C(C)C)nc3cccnc32)c1 | inactive: -5.71%
COc1ccc(OC)c(S(=O)(=O)NCCc2sc(-c3ccc(C)cc3)nc2C)c1 | inactive: -12.6%
COc1ccc(N2CCN(C(=O)c3ccc(C)c(NC(=O)c4nsc5ccccc45)c3)CC2)cc1 | inactive: 20.2%
CCOC(=O)c1c(NC(=O)/C=C/c2ccccc2)sc2c1CCCC2 | inactive: -4.92%
COc1ccc(C(=O)Nc2ccc(-c3nc4ncccc4o3)cc2)cc1 | inactive: 12.8%
CC(C)(C)OC(=O)N1CCC(c2c(C(=O)NCc3ccccn3)cnn2-c2ccccc2)CC1 | inactive: -8.52%
Cc1ccc(S(=O)(=O)c2cnc(SCC(=O)Nc3cc(C)cc(C)c3)nc2N)cc1 | inactive: -40%
Cc1cccc(OCc2ccc(-c3nc(C#N)c(NCCN(C)C)o3)o2)c1 | inactive: -7.4%
Cc1cc(Nc2ccc(C)c(C)c2)n2cnnc2n1 | inactive: -4.23%
COc1ccc2c(c1)c1c(c(=O)n(-c3ccccc3C)c(=O)n1CC(=O)NCc1ccc(C)cc1)n2C | inactive: -29.1%
COC(=O)c1ccccc1NC(=O)Cn1cc(S(=O)(=O)Cc2ccccc2F)c2ccccc21 | inactive: -44.2%
CCOC(=O)c1c(C)oc2nc(C)nc(NCc3ccccc3Cl)c12 | inactive: -5.91%
CCCCc1ccc(-n2nc3cc(C)c(NC(=O)Cc4ccccc4)cc3n2)cc1 | inactive: -2.34%

Structure (SMILES) | activity change, positive = activation
Cc1ccc2cccc(NC(=O)COc3ccccc3[N+](=O)[O-])c2n1 | inactive: -0.477%
CCN(CC)c1ccc(NC(=O)CSc2nnc(C)c(=O)[nH]2)cc1 | inactive: -17.2%
C=CC(=O)Nc1cccc(Oc2nc(Nc3ccc(N4CCN(C)CC4)cc3)ncc2Cl)c1 | inactive: -33.6%
CCCN(CCC)C(=O)CSc1nnc2cc(C)c3cc(C)cc(C)c3n12 | inactive: -11.3%
O=C(Nc1cc(Cl)cc(Cl)c1)c1ccc(F)c(S(=O)(=O)NC2CCCC2)c1 | inactive: -16.9%
Cc1cccc(CN2C(=O)c3ccccc3Sc3ccc(C(=O)N4CCCC4)cc32)c1 | inactive: -37.7%
CCOC(=O)c1c(NC(=O)COc2ccccc2F)sc2c1CCCC2 | inactive: -1.76%
COCCN1C(=O)c2[nH]nc(-c3ccccc3O)c2C1c1ccc(OCc2ccccc2)c(OC)c1 (configuration not stated) | inactive: -37.5%
CCc1ccc(N(CC)C(=O)c2ccc3c(=O)n4c(nc3c2)CCCCC4)cc1 | inactive: -24.3%
CCn1c(C(=O)N2CCC(C(=O)NCCc3ccccc3)CC2)cc2sccc21 | inactive: -8.39%
CCC(Sc1nnc(-c2ccc(OC)cc2)c(-c2ccc(OC)cc2)n1)C(=O)NC1CCCCC1 (configuration not stated) | inactive: -0.717%
Cc1ccc(-n2c3nc(=O)n(C)c(=O)c-3cc3c(Cl)cccc32)c(C)c1 | inactive: -13.1%
Cc1ccc(NS(=O)(=O)c2ccc(NC(=O)N3CCCC3)cc2)cc1C | inactive: -6.23%
CC1CCCN(S(=O)(=O)c2ccc(NC(=O)c3nc(SC(C)C)ncc3Cl)cc2)C1 (configuration not stated) | inactive: -20.6%
CCCCN(Cc1ccccc1)C(=O)c1oc(=O)c2ccccc2c1-c1ccc(C)cc1 | inactive: -50.1%
COc1ccc(N2CC(NC(=O)c3ccc(S(=O)(=O)N4CCCC4)cc3)CC2=O)cc1 (configuration not stated) | inactive: -17.9%
CCOC(=O)c1ccc(NC(=O)C(CC)Sc2nc3ncccc3[nH]2)cc1 (configuration not stated) | inactive: -14.1%
COc1ccc(-n2nc(C(=O)N3CCN(c4ccccc4OC)CC3)c3c4ccccc4n(C)c3c2=O)cc1 | inactive: -0.364%
COc1cccc(N2CC(NC(=O)/C=C\c3ccc4c(c3)OCO4)CC2=O)c1 (configuration not stated) | inactive: -9.84%
Cc1ccc(C(=O)N2CCC(c3c[nH]c4ccccc34)(c3c[nH]c4ccccc34)CC2)cc1 | inactive: -35.9%
Cn1nccc1C(=O)NCc1ccc2c(c1)CCN2C(=O)c1ccc(F)cc1 | inactive: -12%
CN1[C@@H]2CCC[C@@H]1CC(NC(=O)c1nn(C)c3ccccc13)C2 (some centres not stated) | inactive: -8.9%
COc1cccc(CNC(=O)c2ccc(Cn3c(SCc4ccccc4)nc4cccnc43)cc2)c1 | inactive: -4.79%
COc1cc(Cl)ccc1Nc1ncc(C(=O)N2CCN(c3ccccc3OC)CC2)c2ccccc12 | inactive: -5.22%
COc1ccccc1Nc1cc(C(=O)NCCCN(C)c2ccccc2)c2ccccc2n1 | inactive: -26.9%

Structure (SMILES) | activity change, positive = activation
O=C(CSc1nc(-c2ccccc2)nc2c1CCCC2)c1ccc(F)cc1 | inactive: -11.2%
CCC(=O)N1c2ccc(S(=O)(=O)NCc3cccc(OC)c3)cc2CC1C (configuration not stated) | inactive: -22.8%
Cc1ccc(S(=O)(=O)c2nc(-c3ccco3)oc2SC(C)c2ccccc2)cc1 (configuration not stated) | inactive: -25.9%
COc1cc(NC(=O)CCc2c(C)nc3nc(-c4cc(OC)cc(OC)c4)nn3c2C)cc(OC)c1 | inactive: -17.1%
CCCCN(CC)CCNC(=O)c1cc2c(-c3ccc(Cl)cc3)nn(C)c2s1 | inactive: -13.9%
Cc1nc2ccccc2n1CC(O)COc1ccc(C(=O)O)cc1 (configuration not stated) | inactive: -17.6%
COc1ccc(N(CC(=O)NCc2ccc(F)cc2)S(=O)(=O)c2c(C)n[nH]c2C)cc1 | inactive: -3.49%
COc1ccc(OCCCn2c(=O)oc3ccc(C)cc32)cc1 | inactive: -12.2%
O=C(CSc1nc2c(oc3ccccc32)c(=O)n1Cc1ccco1)Nc1cccc(Cl)c1 | inactive: -1.23%
Cc1cn(C)c(CC(=O)Nc2cccc(Cl)c2C)c1C(=O)O | inactive: -2.57%
COc1cc2c(cc1NS(=O)(=O)c1cccc(C#N)c1)n(C)c(=O)n2C | inactive: -13.6%
Cc1cc(C)cc(NC(=O)CN2C(=O)c3ccccc3Sc3ccc(C(=O)N4CCOCC4)cc32)c1 | inactive: -4.14%
Cc1ccc(C)c(Cn2nnc(C(=O)NCc3ccc(Cl)cc3Cl)c2N)c1 | inactive: -4.23%
CCc1ccccc1NC(=O)CN1C(=O)CCc2cc(S(=O)(=O)N3CCCCC3)ccc21 | inactive: -19.1%
Cc1ccc(CNC(=O)c2ccc(CSCc3ccc(Cl)cc3)o2)cc1 | inactive: -16.8%
Nc1ncnc2c1ncn2[C@@H]1O[C@H](CO)[C@@H](O)[C@@H]1O | inactive: -3.07%
C/C(=C(/OCCOc1ccc(Cl)cc1)c1ccc(Cl)cc1Cl)n1ccnc1 | inactive: -28.2%
CCOc1ccccc1C(=O)Nc1c(NC)c2ccccc2oc1=O | inactive: -7.86%
O=C(NCc1cccc(F)c1)C1=Cc2cc(Br)ccc2OC1 | inactive: -14%
Cc1ccc(-n2ccnc(NCc3ccccc3)c2=O)cc1C | inactive: -8.46%
O=C(Nc1cc(C(F)(F)F)ccc1Cl)c1cc2nc(-c3ccc4c(c3)OCO4)cc(C(F)(F)F)n2n1 | inactive: 13.7%
Cn1c(=O)oc2cc(S(=O)(=O)N3CCCC(C(=O)Nc4ccc(Br)cc4F)C3)ccc21 (configuration not stated) | inactive: -25.9%
COC(=O)c1cc(NC(=O)Cn2nc(C)n3cccc3c2=O)cc(C(=O)OC)c1 | inactive: -0.559%
CCC(C)NC(=O)c1ccc(-n2c(-c3ccccc3)cc3c2CCCC3)cc1 (configuration not stated) | inactive: 17.5%
Cc1ccc(-c2c(C(=O)NCc3ccccc3)oc(=O)c3ccccc23)cc1 | inactive: -19.5%

Structure (SMILES) | activity change, positive = activation
CCOC(=O)C1=C(CS(=O)(=O)c2ccc(Br)cc2)NC(=O)NC1c1ccccc1 (configuration not stated) | inactive: -21.1%
Cc1ccccc1CNC(=O)c1ccc(-c2nc(CS(=O)(=O)c3ccccc3)c(C)o2)cc1 | inactive: -41.8%
CC(=O)c1c(C)oc2ccc(N(C(=O)Oc3ccccc3)S(=O)(=O)c3ccc(C(C)(C)C)cc3)cc12 | inactive: -37%
CCc1cccc(C)c1NC(=O)c1cc(C)nc2c1c(C)nn2-c1cccc(Cl)c1C | inactive: -8.45%
COc1ccc(C)cc1NC(=O)CN(c1cc(C(F)(F)F)ccc1Cl)S(C)(=O)=O | inactive: -30.8%
COc1cc(NC(=O)c2cc(Cl)c(OC)c(Cl)c2)ccc1NC(=O)c1cc2ccccc2o1 | inactive: -7.33%
Cc1cccc(C(=O)NCCc2sc(-c3ccccc3)nc2C)c1 | inactive: -17.9%
CCOC(=O)c1sc2ccccc2c1S(=O)(=O)Nc1cccc(C(F)(F)F)c1 | inactive: -38.5%
Cc1coc2c1c(C)cc1oc(=O)cc(C)c12 | inactive: -7.51%
CCCCN(C)C(=O)C(Cc1ccccc1)NS(=O)(=O)c1ccc2c(c1)c(=O)n(C)c(=O)n2C (configuration not stated) | inactive: -30.2%
COc1ccc(-c2nnc(SCC(=O)Oc3c(C)cccc3C)o2)cc1OC | inactive: 0.843%
Cc1oc(-c2cccc(Cl)c2)nc1CN1CCCC(C(=O)NCc2ccc(F)cc2)C1 (configuration not stated) | inactive: -17.6%
CC(C)c1ccc(S(=O)(=O)c2nnn3c2nc(NC2CCCC2)c2sccc23)cc1 | inactive: -13.3%
Cc1ccc(CSCC(=O)N2CCN(c3ccc(F)cc3)CC2)cc1 | inactive: -7.52%
Cc1ccc2c(=O)cc(CSc3ccccc3)[nH]c2c1C | inactive: -4.28%
CC(=O)c1cccc(S(=O)(=O)NCCc2csc3nc(-c4ccc(F)cc4)nn23)c1 | inactive: -33.4%
Cc1nc(CC(=O)Nc2cccc(C)c2C)cs1 | inactive: -13.1%
Cc1cccc(N(CC(=O)Nc2ccc(Br)cc2)S(C)(=O)=O)c1C | inactive: -14%
COc1ccc(C(=O)NCc2ccc3c(c2)CCN3C(=O)c2ccncc2)cc1 | inactive: -11.3%
COc1ccc(OC)c(NC(=O)c2c(NCc3ccc(C)o3)sc3c2CCC(C)C3)c1 (configuration not stated) | inactive: -28.5%
Cc1cc(OC(=O)c2cc(-c3ccc4c(c3)OCCO4)on2)ccc1Cl | inactive: 0.573%
Cc1ccc(CN2CCCn3nc(C(=O)NCCc4ccc(Cl)cc4)cc3C2=O)cc1 | inactive: -40.1%
